Measurements published in PubChem BioAssay AID1508624 (National Center for Advancing Translational Sciences (NCATS), 2021).
The whole screen tested about 48,000 compounds, of which about 120 (0.25%) were called active. Another 4% or so got no clear call; they are omitted. Calls come from the whole dose curve; as a rule, active = well fitted activation curve with a large enough effect; inconclusive = small, poorly fitted or top-dose-only effect, or another doubt; inactive = no such curve, though single readings can be large or run the other way. The list shows a part of the results.

Assay: Primary qHTS for Identification of Small Molecule Activators of Huntingtin-Antisense Promoter Activity; note: nearly all actives have a fitted effect of over 55% in size
Conditions: HEK293 HTT-AS promoter firefly luciferase reporter, 24 h; series mostly up to 57.5 µM; activity change, positive = activation: at the top concentration
Summary of the method: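 HEK293 Fluc reporter, 2,500 cells/well, 24 h pre-culture; cpds up to 57.5 uM final, 24 h 37 degrees C; Dual-Glo, 10 min RT; normalized vehicle = 0%, zero RLU = -100%.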

Activity change, positive = activation, inactive:
COc1ccc(CCNC(=O)Cn2c(C)c3cnn(-c4ccccc4)c(=O)c3c2C)cc1OC -12.8%
COc1ccc(-c2[nH]c(-c3ccc(F)cc3)nc2SCC(=O)Nc2ccc(OC)c(OC)c2)cc1 -17.9%
Fc1ccc(-n2ncc3c(Nc4ccc(Oc5ccc(Cl)cc5)cc4)ncnc32)cc1 26.8%
CCOC(=O)[C@H](CCc1ccccc1)N[C@@H](C)C(=O)N1[C@@H](C(=O)O)C[C@H]2CCC[C@@H]21 -17.9%
COC(=O)c1ccccc1NC(=O)CN1C(=O)COc2ccccc21 -5.74%
Cc1ncc(CO)c2c1Oc1nc(-c3ccccc3F)nc(SCC(=O)N3CCCCC3)c1C2 -11.2%
COc1ccc(NC(=O)CSc2nc3c(c(=O)[nH]2)CN(Cc2ccccc2)CC3)cc1Cl 0%
CCc1ccc(NC(=O)Cn2c(=O)n(Cc3ccccc3)c(=O)c3oc4ccccc4c32)cc1 -4.55%
COc1cccc2cc(-c3nc(Cl)c4c5c(sc4n3)CC(C)CC5)c(=O)oc12 (stereo not drawn) -15.6%
Cc1ccc(S(=O)(=O)c2cn(C)c3cc(N4CCCC4)c(F)cc3c2=O)c(C)c1 -20.2%
CCOc1cc(C(=O)Nc2c(NC)c3ccccc3oc2=O)cc(OCC)c1OCC 9.04%
CCc1ccc(NC(=O)c2cnn(-c3c(C)cccc3C)c2C2CCNCC2)cc1 -5.86%
Cc1ccc(C)c(CN2C(=O)c3ccccc3Sc3ccc(C(=O)NC4CCCC4)cc32)c1 -26.5%
COc1ccc(NC(=O)c2c(C)oc3ccc(O)c(CN4CCCC(C)C4)c23)cc1Cl (stereo not drawn) -21.8%
Cc1ccc(-n2ncc(C(=O)N3CCc4ccccc4C3)c2C2CCN(C(=O)OC(C)(C)C)CC2)cc1C -3.44%
Cc1ccc(N2CCN(C(=O)CCc3c(C)nc4ncnn4c3C)CC2)c(C)c1 -30.9%
CCS(=O)(=O)c1ncc(Cl)c(C(=O)N(Cc2ccccc2)Cc2ccco2)n1 -93.5%
COc1ccccc1-c1noc(-c2ccc(NCCc3ccccc3)c([N+](=O)[O-])c2)n1 8.6%
CCn1cc(C(=O)NCCc2ccc(OC)c(OC)c2)c(=O)c2cc(S(=O)(=O)N3CCc4ccccc4C3)ccc21 -16%
COc1cccc(CNC(=O)CSc2ncc(S(=O)(=O)c3ccc(C)c(Cl)c3)c(=O)[nH]2)c1 3.19%
COc1ccc(-c2nc(CN3CCC(C(=O)NCCN(CC(C)C)CC(C)C)CC3)c(C)o2)cc1OC -18.8%
CCCn1c2ccccc2c2cnn(CC(=O)N(CCCOC(C)C)Cc3ccco3)c(=O)c21 -48%
COc1cc(Nc2ncnc3onc(-c4ccc(Cl)cc4)c23)cc(OC)c1 -33.6%
Cc1ccc(-n2c(=O)c3c(C)c(C)sc3n(CC(=O)c3ccc(Cl)cc3)c2=O)cc1C -20%
O=C(Cn1c(=O)n(Cc2ccc(F)cc2)c(=O)c2sc3ccccc3c21)NCc1ccccc1Cl -1.15%
COc1ccc(N2CCN(C(CNS(=O)(=O)c3c(C)cc(C)cc3C)c3ccco3)CC2)cc1 (stereo not drawn) -34.3%
N#Cc1c(C(F)(F)F)cc(-c2cccs2)nc1SCC(=O)Nc1ccc(Cl)cc1 -17%
Cc1cccc(N2CCN(S(=O)(=O)c3c(C)[nH]c(=O)[nH]c3=O)CC2)c1C -14.2%
O=C1CN(C(=O)c2ccccc2)C(c2ccc(F)cc2)c2cc(Br)ccc2N1 (stereo not drawn) -5.93%
CCc1cccc(C)c1NC(=O)Nc1csc2c1CCCC2 -32.7%
Cc1ccc(C)c(NC(=O)CSc2nncn3c2cc2sccc23)c1 -37.4%
COc1ccc2sc(N(Cc3cccnc3)C(=O)c3ccco3)nc2c1 -26.7%
CCOCCCNC(=O)c1c(NC(=O)c2cc(=O)c3cc(C)c(C)cc3o2)sc2c1CCC2 -2.19%
CCOC(=O)c1ccc(N2C(=O)c3[nH]nc(-c4ccc(OC)cc4)c3C2c2ccc(C)cc2)cc1 (stereo not drawn) -34.1%
CCCNC(=O)C1CCN(c2cc(C)nc3c(-c4ccc(OC)c(OC)c4)c(C)nn23)CC1 5.27%
COc1ccc(CN2C(=O)N(c3ccc(F)cc3)C(=O)C2CC(=O)Nc2ccccc2)cc1 (stereo not drawn) -2.51%
CCOc1ccc(N2CC(c3nc4ccccc4n3CCC3CCCCC3)CC2=O)cc1 (stereo not drawn) -18.6%
Cc1ccc(CCNc2nc3ccccc3c3nc(-c4ccccc4)nn23)cc1 4.09%
O=C1N=C(O)CN1/N=C/c1ccc(-c2ccc([N+](=O)[O-])cc2)o1 -2.45%
Cc1oc(-c2ccc(Cl)cc2)nc1CSc1nnc(C)n2c1cc1sccc12 -7.53%
O=C(NCCc1c[nH]c2ccccc12)Nc1ccccc1C(F)(F)F -20.7%
COC(=O)c1cc(NC(=O)Cn2ncc3c2-c2ccccc2OC3)cc(C(=O)OC)c1 -28.7%
COc1ccc(-c2noc(-c3ccc(NC4CCCCC4)c([N+](=O)[O-])c3)n2)cc1OC -2.48%
COc1cc2cc(CNc3ccc(C)cc3)c(=O)n(CC(=O)Nc3ccc(C(C)C)cc3)c2cc1OC -13.2%
CN(C)c1ccc(CNC(=O)CCC(=O)N2Cc3ccccc3Oc3ncccc32)cc1 -16.3%
COc1ccccc1NC(=O)c1ccccc1NC(=O)c1ccccc1 -20.9%
COc1ccc(NC(=O)CSc2nc(-c3ccc(OC)cc3)[nH]c2-c2ccc(F)cc2)cc1 -21%
Cc1ccc(CN(C(=O)COc2ccc(C(C)(C)C)cc2)C2CCS(=O)(=O)C2)o1 (stereo not drawn) -30.4%
COc1ccc(-c2c3c(nc4sc(C(=O)Nc5ccc(Cl)cc5)c(N)c24)CC(C)(C)CC3=O)cc1 -5.31%
CCOc1ccccc1NC(=O)CN(CCc1ccccc1)S(=O)(=O)c1ccc(C)cc1 -62% [at 11.5 µM, percent change from vehicle, -100% = no light]
Cn1nnc2c(N3CCCCC3)ncnc21 3.26%
CCc1cccc(C)c1NC(=O)CN1C(=O)c2c(c3ccccc3n2C)C1c1ccc(OC)cc1 (stereo not drawn) -20.2%
Clc1ccc(CNc2nc3ccccc3c3nc(-c4cccnc4)nn23)cc1 -4.9%
CCn1ccc2cc(S(=O)(=O)N3CCC(C(=O)NCCc4ccc(SC)cc4)CC3)ccc21 -31.3%
CCCCN(C)C(=O)CN1C(=O)CCn2nc(-c3cn(C)c4ccccc34)cc21 -17.4%
COc1ccc(-c2nc(CCNC(=O)c3cccs3)cs2)cc1OC -29%
COc1cccc(CCNC(=O)c2c(O)nc3cc(C)ccn3c2=O)c1 -9.75%
CCc1ccccc1NC(=O)C(NS(=O)(=O)c1ccc2c(c1)CCC(=O)N2)c1ccccc1 (stereo not drawn) 8%
